#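 Cells were grown in 96-well plates and exposed to each compound for 48 hours at five concentrations; endpoints were interpolated linearly between bracketing concentrations, or set to the highest concentration if not reached. At the GI50, growth is halved. Definition used: TGI = concentration required for complete inhibition of growth.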 Numbered stars: 1 amine (or outer) side, 2 acyl side, 3 side chain; on linkers, the order of the positions; unused ones are H or OH. Square brackets hold non-standard residues; d marks the D form. Peptide text beside a SMILES is read from it. X4 = C[C@H](N[*:1])C(=O)C(C)(C)C(=O)[*:2]; Hmpa(2S,3S) = CC[C@H](C)[C@H](O)C(=O)O; NMeY = CN[C@@H](Cc1ccc(O)cc1)C(=O)O; NMeL = CN[C@@H](CC(C)C)C(=O)O; NMeV = CN[C@H](C(=O)O)C(C)C; βAla = NCCC(=O)O
# Tested on: NCI-H322M lung
# Assay: inhibition of tumour cell growth, NCI panel, 48 h
SMILES,GI50,TGI
CCCCCCCCCCCCC(O)[C@H]1CC[C@H](C(O)CCCCCC(=O)CCCCC2CC(C(C)=O)C(=O)O2)O1 (stereo not given in full),8.48 µM,66.9 µM
Cc1cn(CC2=NCC(C)N2)c(=O)[nH]c1=O (stereo not given),,> 100 µM
CCOC(=O)c1ccc(N=c2sc3ccccc3nc2Nc2ccc(C(=O)OCC)cc2)cc1,,> 100 µM
CC(=O)C1=C(O)CC2CC3c4[nH]c5ccccc5c4CCN3CC2C1 (stereo not given),,> 100 µM
CC(=O)O[C@H]1C(=O)[C@@]2(C)C(C(OC(=O)c3ccccc3)C3[C@@H](O)C(OC(=O)[C@@H](O)[C@H](NC(=O)c4ccccc4)c4ccc(C(F)(F)F)cc4)C(C)=C1C3(C)C)[C@]1(OC(C)=O)CO[C@@H]1C[C@@H]2O (stereo not given in full),,> 25 µM
CCN(CC)c1ccc(C(=O)c2ccc(N(CC)CC)cc2)cc1,1.17 µM,> 100 µM
O=C1C[C@@H]2/C(=C(O)\C=C\c3ccccc3)C(=O)C=C[C@@H]2O1,1.88 µM,5.7 µM
O=C1c2ccccc2S(=O)(=O)c2cc(-c3nn[nH]n3)ccc21,,> 100 µM
O=C1c2ccccc2-c2c1c1ccccc1c(=O)n2CCCn1ccnc1,2.3 µM,6.13 µM
Cc1ccc(O)c(NC(=O)c2ccc(CNc3ccnc(C(F)(F)F)c3)cc2)c1,8.27 µM,58.2 µM
O=C1C(c2c(O)[nH]c3ccc(Br)cc23)=Nc2ccccc21,,31.2 µM
CC(=O)OCc1ccc2oc(=O)c(C(=O)Oc3ccccc3)cc2c1,,> 100 µM
N/C(=N\N=C\c1ccc2c(c1)OCCO2)NO,,> 64.8 µM
NC(N)=NS(=O)(=O)c1ccc(NCCc2c3ccccc3nc3ccccc23)cc1,,> 100 µM
COc1ccccc1NC(=O)CC(=O)N/N=C/c1ccc(N(CCC#N)S(=O)(=O)c2ccccc2)cc1,,> 100 µM
CCN1CCC(O)(c2ccc(Cl)cc2)C(C(=O)c2ccc(Cl)cc2)C1 (stereo not given),,> 100 µM
CC(=O)c1cc2ccccc2oc1=O,,> 100 µM
O=C1Oc2cc(O)cc(/C=C/c3ccc(O)cc3)c2[C@@]12c1c(O)cc(O)cc1OC2c1cccc(O)c1 (stereo not given in full),,87.8 µM
Cn1cc2ccccc2c1-c1nc(F)nc(OCC(=O)[C@H]2CCC3[C@@H]4CCC5=CC(=O)CC[C@]5(C)C4[C@@H](O)C[C@@]32C)n1 (stereo not given in full),,37.4 µM
COCN1C(=O)[C@@H]2CCCN2C(=O)c2cc(N)ccc21,,> 100 µM
CC(=O)O[C@H]1[C@H](OC(=O)CC(C)(O)CC(=O)O)C[C@]2(C)C3=C(CCC2C1(C)C)[C@]1(C)CC[C@H]([C@H]2CC[C@H](C(C)(C)O)OC2O)[C@@]1(C)[C@@H](O)C3 (stereo not given in full),,35.6 µM
C=C1CC2(OC1=O)C(=O)Nc1ccccc12 (stereo not given),13.5 µM,38.5 µM
O=C1CCc2c(sc3[nH]c(=S)n(Cc4ccc(Cl)cc4)c(=O)c23)C1,2.64 µM,> 100 µM
O=C(NCCCCCCNC(=O)c1cc(-c2ccccc2)nc2ccccc12)c1cc(-c2ccccc2)nc2ccccc12,,> 100 µM

SMILES,GI50,TGI
CC(C)(C)c1cc(O)ccc1O,,> 100 µM
CO/N=C(\C)CCC#Cc1ccccc1C(=O)OC,,> 10 µM
CCOC(=O)c1[nH]c(COC(C)=O)c2c1CCCCCCCCCC2,,> 100 µM
COc1cc(/C=c2\sc3n(c2=O)C(c2ccc(Cl)cc2)C2=C(CCCC2C)N=3)cc(OC)c1OC (stereo not given),,> 100 µM
Cc1cc(=O)oc2c(CNC(Cc3ccccc3)C(=O)O)c(O)ccc12 (stereo not given),,> 100 µM
CC12CCC(Br)C(C)(C)C1CC=C1C(=O)OCC1O2 (stereo not given),,38.5 µM
Cc1cc(C)c(-n2c(-c3ccc(Br)cc3)cs/c2=N\N=C2C=C(C(C)(C)C)C(=O)C(C(C)(C)C)=C2)c(C)c1,,> 100 µM
CN(C)c1ccc(/C=c2\sc3nc4ccccc4n3c2=O)cc1,,> 100 µM
CCCCCCCc1cc2c3c(nc4ccccc42)C(=O)c2cccnc2-c3n1,1.88 µM,6.46 µM
COC(C)(C)C/C=C/C(C)=C/C=C/C(C)=C\C=C\C(C)=C\C=C\C=C(C)\C=C\C=C(C)\C=C\C=C(C)\C=C\CC(C)(C)OC,> 150 µg/mL,> 150 µg/mL
N#Cc1c(N)nc(Sc2ccccc2N)c(C#N)c1-c1ccc(Cl)cc1,,> 100 µM
O=Cc1c(O)c(C(=O)Nc2ccc3[nH]c(=O)[nH]c3c2)cc2ccccc12,,> 100 µM
Oc1ccc2c(c1)-c1c(c3ccccc3n1CCN1CCOCC1)CC2,,56.7 µM
COc1ccc(/C=C2\CCC(C)C3=C2N=c2s/c(=C/c4cccc(Br)c4)c(=O)n2C3c2ccc(OC)c(OC)c2)cc1OC (stereo not given),,> 100 µM
N#C/C(=C\c1ccc(Br)cc1)n1nnc2ccc(F)cc21,1.56 µM,3.09 µM
COc1ccc(OCC(=O)O)c(C(=O)CCC(=O)O)c1,,> 100 µM
O=C(O)C1CC(O)CN1 (stereo not given),,> 100 µM
Nc1nc2c3nc(Nc4ccccc4)sc3nc(=O)n2c2sc(Nc3ccccc3)nc12,,> 100 µM
"CC[C@H](C)[C@@H]1OC(=O)CCNC(=O)[C@@H](C)NC(=O)C(C)(C)C(=O)[C@H](C)NC(=O)[C@H](Cc2ccc(OC)cc2)N(C)C(=O)[C@H](C(C)C)N(C)C(=O)CNC(=O)[C@H](CC(C)C)N(C)C(=O)CNC1=O (cyclo(G[NMeL]G[NMeV][NMeY](Me)[X4][dA][βAla][Hmpa(2S,3S)]))",,> 50 µM
O=c1c2cc(Cl)ccc2sc2cccc(Cl)c12,,> 100 µM
CC(=O)OCC1OC(n2c(-c3ccc(C)cc3)cc(-c3ccccc3)c(C#N)c2=S)C(OC(C)=O)C(OC(C)=O)C1OC(C)=O (stereo not given),,> 100 µM
CC(=O)Nc1ccc(C2SCc3nc4ccccc4n32)cc1 (stereo not given),,> 100 µM
Cc1cccc(C)c1NC(=O)C(=O)Nn1c(NN)nc2ccccc2c1=O,,> 100 µM
NCCCNCCCCNC(=O)C(O)NC(=O)CCCCCCN=C(N)N (stereo not given),4950 µM,> 5000 µM

SMILES,GI50,TGI
O=C(NNC(=S)NC1CCCCC1)c1csc(NC(=S)NC2CCCCC2)n1,,29.4 µM
Nn1c(Cc2ccc([N+](=O)[O-])cc2)n[nH]c1=O,,> 100 µM
O=C1c2ccccc2C(=O)N1CC(O)COc1cccc2ccccc12 (stereo not given),,> 100 µM
Cc1cc2c([nH]c3ccccc32)c2c1OC(C)(C)C1C3CC(C)(C)Oc4c(C)cc5c6ccccc6n(c5c43)C21 (stereo not given),,> 100 µM
O=C1C(=Cc2c(O)cc(O)cc2O)C(=O)c2ccccc21,,> 75.4 µM
C=C1CCC([N+](=O)[O-])[C@](C)(N=O)CC[C@@H]2C1CC2(C)C (stereo not given in full),,> 100 µM
CCN(CC)C(=O)C(C)n1cc(C)c(=O)[nH]c1=O (stereo not given),,> 100 µM
CCCC(=O)Nc1cc(/C=C/C(=O)N2CC(CCl)c3c2cc(O)c2[nH]cc(C)c32)n(C)c1 (stereo not given),,< 2.5e-05 µM
COc1ccccc1C(=O)c1c(NCc2ccccc2)c(=O)c1=O,,> 100 µM
COc1cccc(NC(=O)/C(Cc2nc3ccccc3nc2C)=N/NC(=O)C[n+]2ccccc2)c1,,> 100 µM
COc1cc(CNNC(N)=S)cc(OC)c1OC,,> 100 µM
O=C(O)CN1C(=O)C(Cc2ccc(O)cc2)N=C(c2cccc(O)c2)c2ccccc21 (stereo not given),,> 100 µM
COc1ccc(C2ON(c3cccc(C)n3)CC=C2C)cc1 (stereo not given),,> 100 µM
COc1cc(C2CC(c3ccc(Nc4ccnc5cc(Cl)ccc45)cc3)=NN2c2ccc(Cl)cc2)cc(OC)c1OC (stereo not given),13.2 µM,> 100 µM
COc1ccc2nc(-c3ccc(O)cc3)sc2c1,,> 100 µM
N#CC1(C#N)C(C#N)(C#N)C12CCCCCC2,,34.9 µM
Cn1cc(-c2ccc(-c3ccc(C4=NC5(CC5)C(=O)N4C[C@@H]4CCN(C(=O)C5CC5)C4)cc3)cc2)cn1,30 µM,> 100 µM
CC(C)(C)OC(=O)N1C(c2cccnc2)=CC[C@H]2C3CC=C(c4cccnc4)[C@@]3(C)CC[C@@H]21 (stereo not given in full),,29.5 µM
C[N+]1=C(/C=C\C=C\c2ccccc2)C(C)(C)c2ccccc21,3.99 µM,15 µM
CCOC(=O)c1ccc(NCC#CCN2CCCCC2)cc1,,> 100 µM
O=c1c(O)c(-c2cc(O)c(O)c(O)c2)oc2cc(O)cc(O)c12,,74.1 µM
Cc1cc(Cl)ccc1NC(=O)CC1SC(=Nc2ccccc2Cl)NC1=O (stereo not given),,> 100 µM
CCCCn1c2c(n(CCCC)c1=S)-c1c(n(CCCC)c(=S)n1CCCC)SSc1c(n(CCCC)c(=S)n1CCCC)-c1c(n(CCCC)c(=S)n1CCCC)SSc1c(n(CCCC)c(=S)n1CCCC)-c1c(n(CCCC)c(=S)n1CCCC)SS2,,> 50 µM
CN(C)CCCNC(=O)c1cc(NC(=O)c2cc(NC(=O)CCNS(=O)(=O)c3ccc4c(c3)C(=O)c3ccccc3C4=O)cn2C)cn1C,35.7 µM,> 100 µM

SMILES,GI50,TGI
OC(c1cc(C23CC4CC(CC(C4)C2)C3)nc2c(Cl)cc(Cl)cc12)C1CCCCN1 (stereo not given),,3.1 µM
O=C1C(=O)c2cccnc2-c2ncccc21,0.97 µM,3.04 µM
COc1ccc(SCc2cc(OCc3ccccc3)c(OCc3ccccc3)c(OCc3ccccc3)c2)cc1,,3.2 µM
NC(N)=Nc1ccc(CC(N)C(=O)O)cc1 (stereo not given),,> 12.5 µM
O=C1C(Cl)=C(NCc2ccco2)C(=O)c2ccccc21,17.9 µM,42.5 µM
O=C1C(Cl)=C(Nc2ccc(S(=O)(=O)Nc3ccccn3)cc2)C(=O)c2ccccc21,,> 49.9 µM
CC(C)/C(Cl)=N\OC(=O)Nc1cccc(Cl)c1,,33.4 µM
N#CC1CCCCCCCCCCC(=O)N(CCCl)C1=O (stereo not given),,> 100 µM
CC(C)OP(=O)(NC(=S)c1ccccc1)OC(C)C,,> 100 µM
CC1=C(C(=O)Nc2ccccc2)C2(CCCCC2)C(C#N)=C(SCC(=O)Nc2ccc(Br)cc2)N1,,> 27.2 µM
Cc1cc(S(=O)(=O)Nc2nc3ccccc3c(=O)n2N)c(S)cc1Cl,,> 100 µM
O=C(Nc1ccc([N+](=O)[O-])cc1Cl)c1cccc([N+](=O)[O-])c1O,,8.87 µM
Cn1cc(C(=O)C[n+]2ccccc2)c2ccccc21,,> 100 µM
C=CC(Cl)(CBr)CCC(Br)C(C)(C)Cl (stereo not given),,44.8 µM
CN(Cc1cc(C(C)(C)C)cc(Br)c1O)Cc1cc(C(C)(C)C)cc(Br)c1O,,17.8 µM
C=C(C)[C@@H]1CCC2=C[C@H](OC2=O)[C@@]2(C)C[C@@H]2C2=CC(C)=C(O2)[C@H]1O,,> 75 µM
N#C/C(N)=C(\C#N)NC(=O)C(=O)N/C(C#N)=C(\N)C#N,,> 100 µM
Cc1ncc(C(=O)Nc2ccc(CN3CCN(C)CC3)c(C(F)(F)F)c2)cc1C#Cc1cnc(N)cc1C#N,0.778 µM,2.8 µM
CCN1CCN(CC(=O)N2c3cccc4cccc(c34)N(C(=O)CN3CCN(CC)CC3)C2c2cn(-c3ccccc3)nc2-c2cccc([N+](=O)[O-])c2)CC1,1.81 µM,3.82 µM
Oc1ccc2oc3ncc(Br)c(-c4ccccc4)c3c2c1,> 100 µM,> 100 µM
O=c1cccccc1[O-].O=c1cccccc1[O-].O=c1cccccc1[O-].[La+3],,> 100 µM
CC1(C)C2C=CC1C(=O)CC2 (stereo not given),,> 100 µM
COc1cc(/C=C/C(=O)C2(C(=O)/C=C/c3cc(OC)c(OC)c(OC)c3)CCCCC2)cc(OC)c1OC,,> 100 µM
